The supplement of paper PMC7266297
Counter-ions that a name gives are not always drawn. This is one part of the list. Many values rest on one well or one pass, so single values are uncertain.

What was measured:
[1] = test system: KB-3-1; test: growth inhibition relative to DMSO control (SRB); cervical cancer cells: KB-3-1 is the parent and KB-V1 overexpresses MDR1; SRB is the sulforhodamine B stain; higher = more growth inhibition; conditions: 1 µM; 72 h
[2] = test system: KB-V1; test: as above; conditions: 1 µM; 72 h
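Note: Read-out is SRB optical density at 490 nm, with the control being wells given 0.5% DMSO vehicle, and compound added one day after cells were plated.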

| Compound | growth inhibition [1] [%] | growth inhibition [2] [%] |
| --- | --- | --- |
| CCOC(=O)[C@H](CCc1ccccc1)N[C@H]1CS[C@H](c2cccs2)CN(CC(=O)O)C1=O [Temocapril HCl] | 95.5 | 85 |
| COc1ccc2c(c1)c(CC(=O)N1CCOCC1)c(C)n2C(=O)c1ccc(Cl)cc1 | 10.3 | 10.8 |
| CC[C@@H](C)Nc1cc(C(=O)N[C@H]2C[C@H]3CC[C@@H](C2)N3c2ccc(C(=O)C3CC3)cn2)c(C)cc1C(N)=O | 73 | 29.6 |
| C=CC(=O)N1CCC[C@@H](n2nc(-c3ccc(Oc4ccccc4)cc3)c3c(N)ncnc32)C1 | < 0 | < 0 |
| N#CC[C@H](C1CCCC1)n1cc(-c2ncnc3[nH]ccc23)cn1 | 15 | 35.1 |
| COc1cc(CCc2cc(NC(=O)c3ccc(N4CC(C)NC(C)C4)cc3)n[nH]2)cc(OC)c1 (stereo unspecified) | 32.7 | 41 |
| Nc1ccccc1NC(=O)c1ccc(CNC(=O)OCc2cccnc2)cc1 [Entinostat (MS-275)] | 40.1 | 36.5 |
| CC1(C)CC(=O)c2c(C(F)(F)F)nn(-c3ccc(C(N)=O)c(N[C@H]4CC[C@H](O)CC4)c3)c2C1 | 85.2 | 53.2 |
| CC(C)(O)CC(=O)NCCn1ccc2ncnc(Nc3ccc(Oc4cccc(C(F)(F)F)c4)c(Cl)c3)c21 | 14.6 | 56.2 |
| OCc1ccc(-c2ccc(-c3ccc(CO)s3)o2)s1 | 63.7 | 68.9 |
| COc1cc2ncc(-c3ccccc3)nc2cc1OC [Tyrphostin AG 1296] | 44.2 | 11.7 |
| CN(C)CCCN1c2ccccc2Sc2ccc(Cl)cc21 [Chlorpromazine HCl] | 29.6 | 18 |
| OC(CNCC(O)C1CCc2cc(F)ccc2O1)C1CCc2cc(F)ccc2O1 (stereo unspecified) [Nebivolol] | 28.6 | 25.7 |
| Oc1ccc(Nc2nc(-c3ccc(Cl)cc3)cs2)cc1 | < 0 | < 0 |
| CC(C)c1cnn2c(NCc3ccccc3)cc(NCCCCCCN)nc12 | 21.5 | 13.5 |
| CN1C2CCCC1CC(NC(=O)c1nn(C)c3ccccc13)C2 (stereo unspecified) [Granisetron HCl] | 10.4 | 31.4 |
| CNCCc1ccccn1 [Betahistine 2HCl] | < 0 | 5.56 |

| Compound | growth inhibition [1] [%] | growth inhibition [2] [%] |
| --- | --- | --- |
| COc1cc(Nc2ncc(F)c(Nc3ccc4c(n3)NC(=O)C(C)(C)O4)n2)cc(OC)c1OC [R406 (free base)] | 27.6 | 28.3 |
| C[C@@H](NCCCc1cccc(C(F)(F)F)c1)c1cccc2ccccc12 [Cinacalcet HCl] | < 0 | 38.7 |
| CN1CCN(c2ccc3nc(-c4c(N)c5c(F)cccc5[nH]c4=O)[nH]c3c2)CC1 [Dovitinib (TKI-258, CHIR-258)] | 74.1 | 71.8 |
| CN(C)CCN1C(=O)c2cccc3cc(N)cc(c23)C1=O [Amonafide] | 71.3 | 67.2 |
| C1=N/C2=N/c3ccc(OCCN4CCCC4)c(c3)COC/C=C/COCc3cccc(c3)C(=C1)N2 [Pacritinib (SB1518)] | 99.3 | 95.5 |
| CCOC(=O)N1c2ccc(C(F)(F)F)cc2[C@@H](N(Cc2cc(C(F)(F)F)cc(C(F)(F)F)c2)C(=O)OC)C[C@H]1CC [Torcetrapib] | 7.68 | 56.5 |
| O[C@@H](COc1cccc2ncccc12)CN1CCN(C2c3ccccc3[C@@H]3[C@H](c4ccccc42)C3(F)F)CC1 (stereo partly specified) | 28.1 | 23.7 |
| CNS(=O)(=O)CCc1ccc2[nH]cc(C3CCN(C)CC3)c2c1 [Naratriptan] | 29.4 | 14.3 |
| C[C@@H]1CCO[C@H]2Cn3cc(C(=O)NCc4ccc(F)cc4F)c(=O)c(O)c3C(=O)N12 | < 0 | < 0 |
| Cc1nc(NC(=O)N2CCC[C@H]2C(N)=O)sc1-c1ccnc(C(C)(C)C(F)(F)F)c1 | 27.4 | 14.9 |
| C/C=C1\[C@H]2C=C(C)C[C@]1(N)c1ccc(=O)[nH]c1C2 [(-)-Huperzine A (HupA)] | < 0 | 14 |
| COC(=O)Nc1ccc(-c2nc(N3CCOCC3)c3cnn(C4CCN(C(=O)OC)CC4)c3n2)cc1 | 84.4 | 86.5 |
| C=CC(=O)Nc1cccc(Oc2nc(Nc3ccc(N4CCN(C)CC4)cc3OC)ncc2Cl)c1 | 40.1 | 39.9 |
| CN1CCN(CCCN2c3ccccc3Sc3ccc(C(F)(F)F)cc32)CC1 [Trifluoperazine 2HCl] | < 0 | 11 |
| CCN(c1cc(-c2ccc(CN3CCOCC3)cc2)cc(C(=O)NCc2c(C)cc(C)[nH]c2=O)c1C)C1CCOCC1 | 12.8 | < 0 |
| Cc1cc(/C=C/C#N)cc(C)c1Nc1ccnc(Nc2ccc(C#N)cc2)n1 [Rilpivirine] | 3.98 | < 0 |
